Data reported in EPA's CvTdb concentration-time database.
The source gives many values for each of these; only a part stands here.

Legend:
[1] = tested on: Rat; assay: concentration in brain after dosing; settings: dosed: 2-Methyltetrahydrofuran
[2] = tested on: Rat; assay: concentration in brain after dosing; settings: 1 h; dosed: 2-Methyltetrahydrofuran; 10 mg/kg; oral; Female; F344
[3] = tested on: Rat; assay: concentration in brain after dosing; settings: 5 min; dosed: 2-Methyltetrahydrofuran; 100 mg/kg; oral; Female; Harlan Sprague Dawley
[4] = tested on: Rat; assay: concentration in brain after dosing; settings: 0.5 h; dosed: 2-Methyltetrahydrofuran; 10 mg/kg; oral; Female; F344
[5] = tested on: Rat; assay: concentration in brain after dosing; settings: 0.75 h; dosed: 2-Methyltetrahydrofuran; 30 mg/kg; oral; Female; F344
[6] = tested on: Rat; assay: concentration in plasma after dosing; settings: 2 h; dosed: 2-Methyltetrahydrofuran; 10 mg/kg; oral; Female; F344
[7] = tested on: Rat; assay: concentration in plasma after dosing; settings: 3 h; dosed: 2-Methyltetrahydrofuran; 30 mg/kg; oral; Female; F344
[8] = tested on: Rat; assay: concentration in plasma after dosing; settings: 2.5 h; dosed: 2-Methyltetrahydrofuran; 10 mg/kg; oral; Female; F344
[9] = tested on: Rat; assay: concentration in plasma after dosing; settings: 0.5 h; dosed: 2-Methyltetrahydrofuran; 10 mg/kg; iv; Female; F344
[10] = tested on: Rat; assay: concentration in plasma after dosing; settings: 0.5 h; dosed: 2-Methyltetrahydrofuran; 30 mg/kg; oral; Female; F344
[11] = tested on: Rat; assay: concentration in plasma after dosing; settings: 6 h; dosed: Fluorotelomer alcohol 8+2; 24 mg/kg; oral; Male; Harlan Sprague Dawley
[12] = tested on: Rat; assay: concentration in plasma after dosing; settings: dosed: Formamide, 90 mg/kg, iv, Male, Harlan Sprague Dawley
[13] = tested on: Rat; assay: concentration in plasma after dosing; settings: dosed: Formamide, 30 mg/kg, iv, Female, F344
[14] = tested on: Rat; assay: concentration in plasma after dosing; settings: 10 min; dosed: Pyridine; 200 mg/kg; oral; Female; Harlan Sprague Dawley
[15] = tested on: Rat; assay: concentration in plasma after dosing; settings: dosed: Pyridine, 5 mg/kg, iv, Female, Harlan Sprague-Dawley

CC1CCCO1 (configuration not stated) [2-Methyltetrahydrofuran]
concentration in brain [µg/g], [1]
Settings	Female	Male
0.25 h, 10 mg/kg, iv, F344	2.99	6.43
0.25 h, 10 mg/kg, oral, F344	3.1	4.05
0.25 h, 30 mg/kg, oral, F344	10.1	17.1
0.5 h, 10 mg/kg, iv, F344	2.15	2.43
0.5 h, 10 mg/kg, oral, F344	2.13	2.65
0.5 h, 30 mg/kg, oral, F344	8.95	13.4
0.75 h, 10 mg/kg, oral, F344	1.45	1.2
0.75 h, 30 mg/kg, oral, F344	7.48	11.7
0.75 h, 100 mg/kg, oral, F344	65.8	–
0.75 h, 100 mg/kg, oral, Harlan Sprague Dawley	45.7	36.5
0.75 h, 400 mg/kg, oral, F344	162	216
0.75 h, 400 mg/kg, oral, Harlan Sprague Dawley	125	–
1 h, 10 mg/kg, iv, F344	0.731	1.48
1 h, 10 mg/kg, oral, F344	0.535	0.577
1 h, 30 mg/kg, oral, F344	7.62	7.05
1.5 h, 10 mg/kg, iv, F344	0.18	0.699
1.5 h, 10 mg/kg, oral, F344	0.237	0.282
1.5 h, 30 mg/kg, oral, F344	4.54	5.58
1.5 h, 100 mg/kg, oral, Harlan Sprague Dawley	40.1	23.4
1.5 h, 400 mg/kg, oral, F344	99.2	187
1.5 h, 400 mg/kg, oral, Harlan Sprague Dawley	146	–
2 h, 10 mg/kg, iv, F344	0.0894	0.365
2 h, 10 mg/kg, oral, F344	0.0382	0.0659
2 h, 30 mg/kg, oral, F344	1.94	3.01
2 min, 10 mg/kg, iv, F344	7.7	10.5
2 min, 10 mg/kg, oral, F344	1.63	0.468
2 min, 30 mg/kg, oral, F344	7.36	1.74
2.5 h, 10 mg/kg, oral, F344	0.0268	0.039
3 h, 10 mg/kg, iv, F344	0.0263	0.0737
3 h, 30 mg/kg, oral, F344	0.0938	0.348
4 h, 100 mg/kg, oral, Harlan Sprague Dawley	22.3	6.08
4 h, 400 mg/kg, oral, F344	83.8	94.8
4 h, 400 mg/kg, oral, Harlan Sprague Dawley	84.7	–
4 min, 10 mg/kg, oral, F344	3.04	1.76
4 min, 30 mg/kg, oral, F344	5.64	5.36
5 min, 10 mg/kg, iv, F344	7.33	4.41
5 min, 100 mg/kg, oral, F344	67.7	56.2
5 min, 100 mg/kg, oral, Harlan Sprague Dawley	28.3	57
5 min, 400 mg/kg, oral, F344	181	222
5 min, 400 mg/kg, oral, Harlan Sprague Dawley	224	–
6 h, 100 mg/kg, oral, Harlan Sprague Dawley	12.3	0.745
6 h, 400 mg/kg, oral, F344	56.2	71.4
6 h, 400 mg/kg, oral, Harlan Sprague Dawley	53.5	–
8 h, 100 mg/kg, oral, F344	–	0.016
8 h, 100 mg/kg, oral, Harlan Sprague Dawley	0.239	0.0313
8 h, 400 mg/kg, oral, F344	–	34.5
8 h, 400 mg/kg, oral, Harlan Sprague Dawley	44.2	–
8 min, 10 mg/kg, oral, F344	2.99	3.84
8 min, 30 mg/kg, oral, F344	8.37	11.8
10 min, 10 mg/kg, iv, F344	5.89	5.7
10 min, 10 mg/kg, oral, F344	3.87	2.77
10 min, 30 mg/kg, oral, F344	8.63	12.8
10 min, 100 mg/kg, oral, Harlan Sprague Dawley	24.9	29.9
10 min, 400 mg/kg, oral, F344	120	236
10 min, 400 mg/kg, oral, Harlan Sprague Dawley	193	–
12 h, 100 mg/kg, oral, Harlan Sprague Dawley	0.00556	–
12 h, 400 mg/kg, oral, F344	9.12	0.821
12 h, 400 mg/kg, oral, Harlan Sprague Dawley	9.07	–
20 min, 10 mg/kg, iv, F344	3.28	5.5
20 min, 10 mg/kg, oral, F344	2.68	4.57
20 min, 30 mg/kg, oral, F344	15.1	16.7
20 min, 100 mg/kg, oral, Harlan Sprague Dawley	47.9	43.9
20 min, 400 mg/kg, oral, F344	165	140
20 min, 400 mg/kg, oral, Harlan Sprague Dawley	182	–

Settings	concentration in brain [µg/g]	concentration in plasma [ng/mL]
[2]	0.435	–
[3]	41.7	–
[4]	2.29	–
[5]	2.58	–
[6]	–	3360
[7]	–	569
[8]	–	59.6
[9]	–	4130
[10]	–	18000

OCCC(F)(F)C(F)(F)C(F)(F)C(F)(F)C(F)(F)C(F)(F)C(F)(F)C(F)(F)F [Fluorotelomer alcohol 8+2]
Settings	concentration in plasma [ng/mL]
[11]	36.1

NC=O [Formamide]
concentration in plasma [ng/mL]
Settings	1 h	3 h	8 h	12 h
[12]	–	–	87400	75500
[13]	41600	32000	–	–

c1ccncc1 [Pyridine]
Settings	concentration in plasma [ng/mL]
[14]	94200

[15]
Settings	concentration in plasma [ng/mL]
5 min	6630
8 h	652
